Reference: PubChem BioAssay AID485297 (National Center for Advancing Translational Sciences (NCATS), 2010)
Out of some 320,000 compounds screened, about 9,100 (2.8%) were called active. Inconclusive means that the source gave no clear call. Such entries were picked first, then a sample of the others. Calls come from the whole dose curve; as a rule, active = well fitted activation curve with a large enough effect; inconclusive = small, poorly fitted or top-dose-only effect; inactive = no such curve, though single readings can be large or run the other way. No potency is given beside an inconclusive call; the fits are too rough.

Test: qHTS Assay for Rab9 Promoter Activators; note: nearly all actives have a fitted effect of over 60% in size; for activation, negative = inhibition: % of control where 0% means no effect
Conditions: Huh7 Rab9 promoter-luciferase reporter, luminescence, 24 h; series mostly up to 9.22 µM; activation, negative = inhibition: at the top concentration
How it was run: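 Promoter activation is measured as luciferase luminescence in Huh7 cells stably transfected with a Rab9 promoter–luciferase construct, following 24 h compound exposure at 37 °C and 10 min reagent incubation at ambient temperature.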
Potency is the fitted concentration of half-maximal effect; tags give direction and shape of the fitted curve.

Question: Which Potency does the source give for `C=CCOc1ccc(/C(O)=C2/C(=O)C(=O)N(CCCn3ccnc3)C2c2ccco2)cc1` (configuration not stated) here?
Answer: inconclusive [activator, partial curve]

Question: With `O=C(CN1C(=O)CC(c2ccco2)Sc2ccccc21)NCc1ccc2c(c1)OCO2` (configuration not stated) as the compound, how does the Potency read?
Answer: inconclusive [activator, single point]

Question: With `Cc1cc2nc(-c3ccc(SCc4ccccc4C#N)nc3)[nH]c2cc1C` as the compound, how does the Potency read?
Answer: inconclusive [activator, single point]

Question: Which Potency does the source give for `C/C(=N/OC(=O)CC(C)C)c1cc(-c2ccc(Cl)cc2)no1` here?
Answer: active: 2.82 µM

Question: Which “activation, negative = inhibition” value does the source give for `CCCC(=O)Nc1cc(C(=O)O)ccc1S(=O)(=O)c1ccc(Cl)cc1` here?
Answer: inactive: -6.85%

Question: With `COc1cc(OC)cc(C(=O)Nc2nnc(SCC(=O)NCc3ccco3)s2)c1` as the compound, how does the Potency read?
Answer: inconclusive [activator, single point]

Question: With `O=C(Nc1ccc2c(c1)OCO2)N1CCN(c2ccc(F)cc2)CC1` as the compound, how does the Potency read?
Answer: inconclusive [activator, partial curve]

Question: Which Potency does the source give for `Cc1cc(C(=O)Nc2ccc3c(c2)OCCO3)ccc1[N+](=O)[O-]` here?
Answer: inconclusive [activator, full curve, poor fit]

Question: For `Cn1nc(NC(=O)C(F)(F)F)c2ncc(-c3ccc(Cl)cc3)nc21`, which Potency is on record?
Answer: inconclusive [activator, partial curve]

Question: With `O=C(COc1ccc(F)cc1)Nc1nnc(-c2ccncc2)s1` as the compound, how does the “activation, negative = inhibition” value read?
Answer: inactive: -4.44%

Question: Which Potency does the source give for `O=C(Nc1ccc(N2CCCC2)cc1)c1cccc(Cl)c1Cl` here?
Answer: inconclusive [activator, partial curve]

Question: With `Cc1ccc(C(=O)Nc2ccc3c(c2)OCO3)cc1S(=O)(=O)N1CCCCC1` as the compound, how does the “activation, negative = inhibition” value read?
Answer: inactive: 22%

Question: For `COc1ccc(OCCSc2ncn[nH]2)cc1`, which Potency is on record?
Answer: inconclusive [activator, partial curve]

Question: With `Cc1ccc(C(=O)Nc2cccc(C(=O)O)c2)cc1` as the compound, how does the Potency read?
Answer: inconclusive [activator, full curve, poor fit]

Question: With `O=C(CSc1ccccc1)Nc1ccc2c(c1)OCCO2` as the compound, how does the Potency read?
Answer: active: 0.631 µM

Question: With `CCOC(=O)c1c(C)[nH]c(C(=O)CN2C(=O)NC3(CCCC3)C2=O)c1C` as the compound, how does the Potency read?
Answer: inconclusive [activator, single point]

Question: For `COc1ccc(CCN(C)C(=O)c2cc(-c3ccccc3)nc3ccccc23)cc1OC`, which “activation, negative = inhibition” value is on record?
Answer: inactive: 18%

Question: Which Potency does the source give for `Cc1ccc(S(=O)(=O)N2CCOCC2)cc1C(=O)N(C)CCOc1ccc(Cl)cc1` here?
Answer: inconclusive [activator, single point]

Question: With `COc1ccc(NC(=O)N2CCCC(C(=O)NCCc3ccccc3)C2)cc1` (configuration not stated) as the compound, how does the Potency read?
Answer: inconclusive [activator, single point]

Question: Which Potency does the source give for `Cc1cc(C(=O)CSc2ncccn2)c(C)n1-c1cccc(F)c1` here?
Answer: active: 1.41 µM

Question: Which Potency does the source give for `N#C/C(=C\c1ccc(OCc2ccc(C(=O)O)cc2)cc1)C(=O)N1CCOCC1` here?
Answer: active: 2.82 µM

Question: With `CN1CCN(c2ccc(NC(=O)c3ccc4c(c3)OCCO4)cc2Cl)CC1` as the compound, how does the Potency read?
Answer: active: 2 µM

Question: Which Potency does the source give for `CCn1nc2cc(C(=O)NCCc3cccs3)ccc2c1OC` here?
Answer: active: 1.12 µM

Question: With `COc1ccc(NC(=O)Nc2cccc(C)n2)c(OC)c1` as the compound, how does the Potency read?
Answer: inconclusive [activator, partial curve]

Question: For `Cc1ccccc1NC(=O)c1ccc2nc(N3CCOCC3)sc2c1`, which Potency is on record?
Answer: inconclusive [activator, single point]

Question: For `CC(C)(C)c1ccc(-c2noc(-c3ccno3)n2)cc1`, which Potency is on record?
Answer: active: 1.41 µM

Question: For `CCCN(CCC)CCCn1c(=O)[nH]c2ccccc21`, which Potency is on record?
Answer: inconclusive [activator, single point]

Question: For `CCCCC(=O)Nc1cccc(NC(=O)c2ccc(Br)o2)c1`, which Potency is on record?
Answer: inconclusive [activator, single point]

Question: With `C(=Nc1ccc(N2CCOCC2)cc1)c1c[nH]c2ccccc12` as the compound, how does the “activation, negative = inhibition” value read?
Answer: inactive: 23.9%

Question: With `CCCOc1ccc(C(=O)N(Cc2cccs2)C2CCS(=O)(=O)C2)cc1` (configuration not stated) as the compound, how does the “activation, negative = inhibition” value read?
Answer: inactive: -8.94%

Question: With `COc1ccccc1N(C)S(=O)(=O)c1ccc(Cl)c(C(=O)NNC(=O)c2ccccc2O)c1` as the compound, how does the “activation, negative = inhibition” value read?
Answer: inactive: -1.99%

Question: With `COc1cc(/C=N/Nc2nc3ccccc3s2)ccc1O` as the compound, how does the Potency read?
Answer: inconclusive [activator, single point]

Question: For `Nc1ccccc1SCc1cn2ccccc2n1`, which Potency is on record?
Answer: active: 1.78 µM

Question: Which Potency does the source give for `COc1ccc(-c2cc(-c3ccc(OC)c(OC)c3)n[nH]2)c(O)c1` here?
Answer: inconclusive [activator, single point]

Question: For `CC(C)(C)c1ccc(C(=O)Oc2ccc3c(c2)OCC3=O)cc1`, which “activation, negative = inhibition” value is on record?
Answer: inactive: -4.97%

Question: For `Cc1cccc(-n2ncc3c(N4CCCc5ccccc54)ncnc32)c1`, which Potency is on record?
Answer: active: 2 µM

Question: For `CN(C)C=Nc1ccc(Cl)c(Cl)c1`, which “activation, negative = inhibition” value is on record?
Answer: inactive: -4.87%

Question: Which Potency does the source give for `CCOC(=O)c1ccc(COc2ccc(C(C)C)cc2)o1` here?
Answer: active: 0.501 µM

Question: For `Cc1nnc(Nc2ccc3c(c2)OCO3)c2ccccc12`, which Potency is on record?
Answer: inconclusive [activator, partial curve]

Question: For `Cc1cc(C)n2nc(C(=O)Nc3nccs3)nc2n1`, which Potency is on record?
Answer: inconclusive [activator, partial curve]

Question: For `Cc1cc2ncc(-c3cccs3)nc2cc1C`, which Potency is on record?
Answer: active: 3.98 µM

Question: For `CC(=O)c1sc(NC(=O)c2cc(=O)c3ccccc3o2)nc1C`, which Potency is on record?
Answer: active: 3.16 µM

Question: For `O=C(Nc1ccccc1N1CCOCC1)C1=NN(c2c(F)c(F)cc(F)c2F)C(=O)CC1`, which “activation, negative = inhibition” value is on record?
Answer: inactive: -5.52%

Question: Which “activation, negative = inhibition” value does the source give for `CNC(=S)N(Cc1ccc(OC)cc1)Cc1cc2cc(C)ccc2[nH]c1=O` here?
Answer: inactive: -1.94%

Question: With `COc1ccccc1Nc1nc(-c2sc(NC(=O)CC(C)C)nc2C)cs1` as the compound, how does the “activation, negative = inhibition” value read?
Answer: inactive: -7.91%

Question: Which Potency does the source give for `O=C(O)c1cccc(-c2noc(-c3cccc(Cl)c3)n2)c1` here?
Answer: inconclusive [activator, full curve, poor fit]

Question: With `O=C(O)c1cc(N/N=C/c2ccc(N3CCOCC3)s2)ccc1Cl` as the compound, how does the Potency read?
Answer: active: 3.16 µM

Question: Which “activation, negative = inhibition” value does the source give for `NNC(=O)c1sc2cc(C(F)(F)F)cnc2c1-c1ccccn1` here?
Answer: inactive: -1.17%

Question: With `CC(=O)Nc1ccc(C(=O)OCc2ccccc2Cl)cc1` as the compound, how does the Potency read?
Answer: inconclusive [activator, single point]

Question: Which Potency does the source give for `CN(C)S(=O)(=O)c1cccc(NC(=O)c2cnccn2)c1` here?
Answer: inconclusive [activator, single point]

Question: With `CCc1ccc(C(=O)COC(=O)c2ccccc2OC)cc1` as the compound, how does the Potency read?
Answer: active: 3.16 µM

Question: With `CCOP(=O)(c1ccccc1)c1nc(-c2ccccc2C)oc1NCc1ccccc1` (configuration not stated) as the compound, how does the Potency read?
Answer: inconclusive [activator, single point]

Question: For `COc1ccc(C(=O)NNC(=O)c2cc3cc(OC)ccc3oc2=O)cc1`, which “activation, negative = inhibition” value is on record?
Answer: inactive: -2.48%

Question: For `Cc1nc(C)c(-c2ccc(SCc3ccccc3F)nn2)s1`, which Potency is on record?
Answer: inconclusive [activator, single point]

Question: With `COc1ccc(Oc2ccc(-c3ccn[nH]3)cc2)cc1` as the compound, how does the Potency read?
Answer: inconclusive [activator, partial curve]

Question: With `O=C(Nc1cccc(O)c1)c1cnn2cccnc12` as the compound, how does the Potency read?
Answer: inconclusive [activator, single point]

Question: Which Potency does the source give for `C/C(=N\NC(=O)c1ccc2c(c1)OCO2)c1ccc(O)cc1` here?
Answer: inconclusive [activator, single point]

Question: Which Potency does the source give for `COc1ccc(/C=C/C(=O)Oc2cccc(/C=N/NC(=O)COc3c(C)cccc3C)c2)cc1` here?
Answer: active: 2.82 µM

Question: For `CC(C)(C)c1ccc(C(=O)c2cn[nH]c2-c2ccccc2O)cc1`, which Potency is on record?
Answer: inconclusive [activator, partial curve]

Question: Which Potency does the source give for `CC(C)CC(=O)Nc1ccc2ccccc2c1` here?
Answer: inconclusive [activator, partial curve]

Question: Which “activation, negative = inhibition” value does the source give for `O=C(CSc1ccccn1)Nc1ccc2c(c1)oc1ccccc12` here?
Answer: inactive: 29.2%

Question: With `COc1ccc(Nc2nc(Cl)nc(Nc3ccc(OC)cc3)n2)cc1` as the compound, how does the “activation, negative = inhibition” value read?
Answer: inactive: 2.06%

Question: Which “activation, negative = inhibition” value does the source give for `COc1ccc(CCNC(=O)CCS(=O)(=O)Cc2ccccc2C)cc1OC` here?
Answer: inactive: -1.05%

Question: Which Potency does the source give for `COc1ccc(NC(=O)CSc2nc3ccsc3c(=O)n2Cc2ccccn2)c(OC)c1` here?
Answer: inconclusive [activator, single point]

Question: Which “activation, negative = inhibition” value does the source give for `Cc1ccc(NC(=O)Nc2ccccc2C(N)=O)cc1` here?
Answer: inactive: 14.9%

Question: Which “activation, negative = inhibition” value does the source give for `CNc1ccc(/C=C2\CSc3ccccc3C2=O)cc1[N+](=O)[O-]` here?
Answer: inactive: 14%

Question: Which “activation, negative = inhibition” value does the source give for `CCN(CC(=O)Nc1ccccc1C(F)(F)F)C(=O)/C=C/c1ccc(Cl)c([N+](=O)[O-])c1` here?
Answer: inactive: -5%

Question: For `Cc1ccc(C(=O)NCCCNC(=O)c2ccco2)cc1C`, which “activation, negative = inhibition” value is on record?
Answer: inactive: 10.5%

Question: For `CCCCCc1ccc(-c2ccc(OCC)cc2)nc1`, which Potency is on record?
Answer: inconclusive [activator, partial curve, poor fit]

Question: Which Potency does the source give for `CCOc1ccc(C(=O)NC2=NCCS2)cc1` here?
Answer: active: 0.501 µM

Question: Which “activation, negative = inhibition” value does the source give for `O=C(C1CCCN(S(=O)(=O)c2ccccc2)C1)N1CCCCC1` (configuration not stated) here?
Answer: inactive: -1.28%

Question: Which “activation, negative = inhibition” value does the source give for `COc1ccc(-c2nnc(SCC(=O)Nc3ccccc3)n2C)cc1` here?
Answer: inactive: 7.35%

Question: With `COc1cnn(-c2ccc(C)cc2)c(=O)c1Cl` as the compound, how does the Potency read?
Answer: inconclusive [activator, single point]

Question: With `Cc1ccc(N=Nc2ccc(O)cc2)c(Br)c1` as the compound, how does the Potency read?
Answer: active: 3.16 µM

Question: With `CCN(CC)S(=O)(=O)c1cccc(NC(=O)CC2CCCC2)c1` as the compound, how does the “activation, negative = inhibition” value read?
Answer: inactive: 2.51%

Question: Which Potency does the source give for `O=C(c1nc2ccccc2s1)N1CCSCC1` here?
Answer: inconclusive [activator, partial curve]

Question: With `Cc1ccc(NC(=O)CN2C(=O)NC3(CCc4ccccc43)C2=O)cc1S(=O)(=O)N1CCCCC1` (configuration not stated) as the compound, how does the “activation, negative = inhibition” value read?
Answer: inactive: 0.588%

Question: For `CC1CCCCN1Cc1cnc(Cl)s1` (configuration not stated), which “activation, negative = inhibition” value is on record?
Answer: inactive: 1.57%

Question: With `COc1ccc([C@H]2CC(=O)C=C(c3cccc(Cl)c3O)C2)cc1OC` as the compound, how does the “activation, negative = inhibition” value read?
Answer: inactive: -3.74%

Question: With `CSc1ncc(-c2ccc(Cl)cc2)[nH]1` as the compound, how does the Potency read?
Answer: active: 3.16 µM

Question: With `CC(C)n1cnc2cc(NCc3ccccn3)ccc21` as the compound, how does the Potency read?
Answer: inconclusive [activator, single point]

Question: For `CCn1ncc(Br)c1C(=O)Nc1ccc2c(c1)OCCO2`, which Potency is on record?
Answer: inconclusive [activator, single point]
